Where “and” joins values, the source holds several entries; their conditions need not be identical. Identical values can stand only once.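 Each compound was tested at five concentrations against cells in 96-well plates for 48 hours. Abbreviation: GI50, concentration required for 50% inhibition of growth. Definition used: TGI = concentration required for complete inhibition of growth.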
System: NCI-H322M lung
Test: NCI anticancer screen, dose series, 48 h

Compared with `COc1cc2c(c(OC)c1OC)C(=O)[C@@H]1c3ccc([N+](=O)[O-])cc3C(=O)N(CCCBr)[C@H]21`, `COc1ccc(OC)c(C(=O)c2oc3ccc(Br)cc3c2N)c1` is 23-fold lower in GI50: 19.8 µM for the first, 0.867 µM for the second.

Compared with `COc1ccc(-c2nnc(COc3ccc(NC(=O)Nc4ccc(Cl)c(C(F)(F)F)c4)cc3F)o2)cc1`, `COc1cc(NS(=O)(=O)c2ccc(-c3cnc(C4CC4)o3)cc2)ccc1F` is 4-fold lower in GI50: 5.63 µM for the first, 1.4 µM for the second.

First: CC1(C)N=C(N)N=C(N)N1c1ccc(OCc2ccc(S(=O)(=O)F)c(Cl)c2)c(Cl)c1
Second: Nc1nc(-c2cccc(Cl)c2)c(-c2ccc3ncccc3n2)s1
The GI50 of the first is lower: 4.51 µM for the first, greater than 25 µM for the second.

First: C=C1CC[C@@H]2[C@](C)(COC(C)=O)[C@H](OC(C)=O)CC[C@@]2(C)[C@@H]1CC(Nc1ccc(S(=O)(=O)Nc2ncccn2)cc1)C1=CCOC1=O (some centres undefined)
Second: Cc1ccc(NC(=O)c2sc3nc(C)c(C(O)c4ccccc4)cc3c2N)cc1 (centres undefined)
The GI50 of the first is 6.1-fold higher: 3.12 µM for the first, 0.509 µM for the second.

Compared with `CCc1oc2ccccc2c1C(=O)c1cc(I)c(O)c(I)c1`, `O=C1/C(=C/c2ccc(O)cc2)CSc2ccc(Cl)cc21` is 2.6-fold higher in GI50: 6.6 µM for the first, 16.9 µM for the second.

In the case of `CC(=O)O.[Au].c1ccc([PH+](c2ccccc2)c2ccccc2)cc1`, the GI50 is reported as 16.3 µM.

First: COc1cc2c(c(OC)c1OC)C(=O)[C@@H]1c3ccc([N+](=O)[O-])cc3C(=O)N(CCCBr)[C@H]21
Second: NCCCn1c2c(c3ccc([N+](=O)[O-])cc3c1=O)C(=O)c1cc(Br)ccc1-2
The TGI of the first is 240-fold higher: 94.9 µM for the first, 0.391 µM for the second.

`c1ccc2c(c1)nc1n2CNC1` and `Cc1nc2ccccc2n1C(=O)c1c(F)c(F)c(F)c(F)c1F` cannot be ordered by TGI: greater than 100 µM for the first, greater than 100 µM for the second.

Going from `COc1ccc(-c2nnc(COc3ccc(NC(=O)Nc4ccc(Cl)c(C(F)(F)F)c4)cc3F)o2)cc1` to `COc1ccc(C2=Nn3c(nnc(Cc4ccc(Cl)cc4)c3=O)SC2)cc1`, the TGI rises from 67.7 µM to greater than 100 µM.

Compared with `CC1(C)N=C(N)N=C(N)N1c1ccc(OCc2ccc(S(=O)(=O)F)c(Cl)c2)c(Cl)c1`, `COc1ccc(OC)c(C(=O)c2oc3ccc(Br)cc3c2N)c1` is lower in TGI: greater than 100 µM for the first, 45 µM for the second.

First: COc1cc(NS(=O)(=O)c2ccc(-c3cnc(C4CC4)o3)cc2)ccc1F
Second: CC(C)(C)c1ccc(-c2nc3ccc(Cl)cc3c(=O)o2)cc1
The TGI of the first is 2.1-fold lower: 47.6 µM for the first, 98.3 µM for the second.

First: C=C1CC[C@@H]2[C@](C)(COC(C)=O)[C@H](OC(C)=O)CC[C@@]2(C)[C@@H]1CC(Nc1ccc(S(=O)(=O)Nc2ncccn2)cc1)C1=CCOC1=O (some centres undefined)
Second: CNC(=O)N1CN(c2ccccc2)C2(CCN(CCCC3(c4ccc(F)cc4)OCCO3)CC2)C1=O
The TGI of the first is lower: 11.2 µM for the first, greater than 100 µM for the second.

`CCCCN1CSC(=S)N(Cc2ccccc2)C1` and `Cc1[nH]n(C2=NCCN2)c(=O)c1Cc1ccccc1` cannot be ordered by TGI: greater than 100 µM for the first, greater than 100 µM for the second.

`CC(=NNC(=S)Nc1ccc(C)cc1)c1cccc(C(C)=NNC(=S)Nc2ccc(C)cc2)n1` and `Cc1ccc(NC(=O)c2sc3nc(C)c(C(O)c4ccccc4)cc3c2N)cc1` (centres undefined) cannot be ordered by TGI: greater than 100 µM for the first, greater than 79.2 µM for the second.

Going from `O=C1OC(c2ccco2)=N/C1=C\c1cccc([N+](=O)[O-])c1` to `O=C1/C(=C/c2ccc(O)cc2)CSc2ccc(Cl)cc21`, the TGI falls from greater than 100 µM to 39.6 µM.

`CC1(C)CC(=O)C(/C=N/c2nc(-c3ccccc3)cs2)=C(O)C1` and `O=c1[nH]nc(Cc2ccccc2)[nH]1` cannot be ordered by TGI: greater than 100 µM for the first, greater than 100 µM for the second.

`COc1ccc(C2C3=C(Nc4ncnn42)c2ccccc2OC3c2ccccc2)cc1` (centres undefined) and `COc1ccc(N2C(=O)C3ON(C(C(N)=O)c4ccccc4)C(c4cc5ccccc5c5ccccc45)C3C2=O)cc1` (centres undefined) cannot be ordered by TGI: 88.8 µM for the first, greater than 50 µM for the second.

Going from `C=C(CC[C@@H](C)[C@H]1CC[C@@]2(C)C3=C(CC[C@]12C)[C@@]1(C)CC[C@H](O)[C@@H](C)C1CC3)C(C)C` (some centres undefined) to `CCNc1cc2c(cc1O)CC[C@@H]1[C@@H]2CC[C@]2(C)[C@@H](O)CC[C@@H]12`, the TGI rises from 2.3 µM to 3.88 µM (1.7-fold).

Going from `N#Cc1c(-c2ccccc2)cc(Nc2cccc(C(F)(F)F)c2)n2c1nc1ccccc12` to `CC(=O)O.[Au].c1ccc([PH+](c2ccccc2)c2ccccc2)cc1`, the TGI rises from 8.98 µM to 30.4 µM (3.4-fold).

First: C=CCc1cc(-c2cc(CC=C)c(O)c(CNCCCl)c2)cc(CNCCCl)c1O
Second: O=C(O)Cc1cc(O)c(CC(=O)O)cc1O
The TGI of the first is lower: 85.9 µM for the first, greater than 100 µM for the second.

Going from `CS(=O)(=O)c1cc(=O)c2ccccc2s1` to `CCc1oc2ccccc2c1C(=O)c1cc(I)c(O)c(I)c1`, the TGI falls from 30.7 µM to 20.2 µM (1.5-fold).

Going from `CCCCCCCCCCN(CCCCCCCCCC)C(=O)COc1c2cc(C(C)(C)C)cc1Cc1cc(C(C)(C)C)cc(c1OCC(=O)N(CCCCCCCCCC)CCCCCCCCCC)Cc1cc(C(C)(C)C)cc(c1OCC(=O)N(CCCCCCCCCC)CCCCCCCCCC)Cc1cc(C(C)(C)C)cc(c1OCC(=O)N(CCCCCCCCCC)CCCCCCCCCC)C2` to `NCCCCC(N)C(=O)NCCNc1ccc(NCCNC(=O)C(N)CCCCN)c2c1C(=O)c1ccccc1C2=O` (centres undefined), the TGI rises from 33 µM to greater than 100 µM.

First: C=C1CCC23CC(CC[C@@H]2[C@@]12C[C@@H](c1ccoc1)OC2=O)OC3=O (some centres undefined)
Second: Cc1ccc2c(c1)C1(C)OC(C=CC1=O)O2 (centres undefined)
The TGI of the first is higher: greater than 100 µM for the first, 17 µM for the second.

`O=c1c2cc(S(=O)(=O)O)ccc2nc(COc2ccc(Oc3ccc(Cl)cc3Cl)cc2)n1-c1ccc(Cl)cc1Oc1c(Cl)cccc1Cl` and `CC(C)c1ccc(C(c2ccc(OCC(=O)O)cc2)c2ccc(C(C)C)cc(=O)c2O)c(O)c(=O)c1` cannot be ordered by TGI: greater than 100 µM for the first, greater than 100 µM for the second.

`COc1cc(OC)c2c(=O)c(OC)c(-c3ccc4c(c3)OCO4)oc2c1` and `COC(C(O)c1ccc2c(c1)OCO2)P(=O)(c1ccccc1)c1ccccc1` (centres undefined) cannot be ordered by TGI: greater than 100 µM for the first, greater than 100 µM for the second.

`CCOC(=O)CN=C1NNS(=O)(=O)c2ccccc21` and `COc1ccc(N2C(=O)c3cc(C)cnc3S2(=O)=O)cc1` cannot be ordered by TGI: greater than 100 µM for the first, greater than 100 µM for the second.

`O=C1NC2OCC(O)C(O)C2O1` (centres undefined) and `CCOC(=O)C1(C(=O)OCC)C[C@H](C)[C@](C)(O)C1` cannot be ordered by TGI: greater than 100 µM for the first, greater than 100 µM for the second.

`N#CCc1ccc(C(C#N)/C(CCCC(=O)Nc2cccc([N+](=O)[O-])c2)=N/NC(N)=S)cc1` (centres undefined) and `Cc1cccc2c(N)c3cccc(C(=O)NCC[N+](C)(C)Cc4c([N+](=O)[O-])ncn4C)c3nc12` cannot be ordered by TGI: greater than 100 µM for the first, greater than 100 µM for the second.

`Cn1c(=O)c2[nH]c(CCCCC(=O)O)nc2n(C)c1=O` and `O=C1C=CC=C/C1=C1\N=C(c2ccccc2OCC(=O)c2ccc(Br)cc2)SS1` cannot be ordered by TGI: greater than 100 µM for the first, greater than 100 µM for the second.

For `Nc1nc(-c2cccc(Cl)c2)c(-c2ccc3ncccc3n2)s1`, the TGI was greater than 25 µM.

With `NCCCn1c2c(c3ccc([N+](=O)[O-])cc3c1=O)C(=O)c1cc(Br)ccc1-2` the GI50 was 0.0481 µM and 0.0339 µM.

— PubChem BioAssay (NCI)
